# Test results reported in PubChem BioAssay AID720507 (National Center for Advancing Translational Sciences (NCATS), 2013).
# Out of some 2,300 compounds screened, about 140 (6.1%) were called active. Inconclusive results, whose numbers are uncertain, are shown with a selection of clear calls. The call rests on the fitted dose curve; in most records, active means well fitted activation curve with a large enough effect; inconclusive means small, poorly fitted or top-dose-only effect; inactive means flat fitted curve, though single readings scatter. Potencies of inconclusive entries are left out as doubtful fits.
# Molecular target: D(2) dopamine receptor (Homo sapiens) (UniProt P14416)
# Chain of UniProt P14416 (P14416 whole entry, looked up): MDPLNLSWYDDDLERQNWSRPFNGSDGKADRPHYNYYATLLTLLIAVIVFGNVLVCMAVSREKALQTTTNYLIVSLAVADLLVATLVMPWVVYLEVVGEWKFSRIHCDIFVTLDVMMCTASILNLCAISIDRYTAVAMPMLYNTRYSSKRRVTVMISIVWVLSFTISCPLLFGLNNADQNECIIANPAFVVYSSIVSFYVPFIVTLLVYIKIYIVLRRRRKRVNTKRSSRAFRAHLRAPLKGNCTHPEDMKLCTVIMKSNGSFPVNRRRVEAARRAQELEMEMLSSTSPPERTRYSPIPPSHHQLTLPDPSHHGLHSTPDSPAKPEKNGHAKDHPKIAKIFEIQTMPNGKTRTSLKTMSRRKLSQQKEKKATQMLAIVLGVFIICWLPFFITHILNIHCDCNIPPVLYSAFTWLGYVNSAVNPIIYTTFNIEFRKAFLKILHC
# Assay: qHTS of D3 Dopamine Receptor Agonist: D2 Dopamine Receptor B-arrestin Agonist Counterscreen; further: nearly all actives have a fitted effect of over 70% in size; on activation: % of control where 0% means no effect
# Conditions: DiscoveRx PathHunter D2 beta-arrestin, luminescence, 90 min; activation: at the top concentration
# Method in brief: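 Enzyme-fragment complementation luminescence measured beta-arrestin recruitment to D2 in DiscoveRx cells. Compound or dopamine exposure lasted 90 min at 37 deg C, with a 1 h room-temperature detection step. Responses above 10% of dopamine maximum were desired.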
# Potency means the concentration at half of the fitted maximal effect; tags describe the fitted curve by direction and shape.
SMILES,activation,Potency
COc1ccc(C2(CCN)CC(C)N(C)CC2C)cc1 (configuration not stated),inactive: 2.67%,
COC(=O)c1ccc(NC(=O)CN2CCN(c3ccccc3)CC2)cc1,,"inconclusive [activator, full curve]"
O=C(C[n+]1cc(-c2ccccc2)n2c1CCC2)N1c2ccccc2Sc2ccccc21,inactive: 12.3%,
C/C(=N\NC(=O)C12CCC(C)(C(=O)O1)C2(C)C)c1ccccc1O (configuration not stated),,"inconclusive [activator, partial curve, poor fit]"
Oc1ccc(C2CNCc3sccc32)cc1O (configuration not stated),,active: 2.82 µM
CCCCCCCCC(NC(=O)c1ccc(C#N)cc1)C(=O)NCCC (configuration not stated),inactive: -1.92%,
COC(=O)C1CCN(Cc2cc(=O)oc3cc(C)c(Cl)cc23)CC1,inactive: 24%,
Cc1[nH]nc2nc(SCC(=O)NCCC3=CCCCC3)n(-c3ccc(Br)cc3)c(=N)c12,inactive: 0.0473%,
Cc1cc2nc(C3CCN(CC4COc5ccccc5O4)CC3)[nH]c2cc1C (configuration not stated),,"inconclusive [activator, full curve, poor fit]"
Cc1ncsc1CCOC(=O)c1ccc(N2CCOCC2)c([N+](=O)[O-])c1,,"inconclusive [activator, full curve, poor fit]"
FCCCOc1ccc(CN2CCN(c3ccccc3F)CC2)cc1,,"inconclusive [activator, partial curve]"
O=C(c1ccco1)N1CCN(CCOCCOc2cccc3ccccc23)CC1,,active: 25.1 µM
Cc1ccc(S(=O)(=O)N2CCOCC2)cc1NC(=O)CNCc1ccccn1,,"inconclusive [activator, full curve]"
CC(=O)CCc1ccc(OCC(O)CNCCOc2ccc(C)cc2)cc1 (configuration not stated),,"inconclusive [activator, partial curve]"
CN(C)S(=O)(=O)c1ccc(NC(=O)CN2CCN(c3ccccn3)CC2)cc1,,"inconclusive [activator, full curve]"
COc1cccc(CNC(=O)CCC2CCCN(C(=O)c3cc(C4CC4)[nH]n3)C2)c1 (configuration not stated),inactive: 0.26%,
CC(CCc1ccccc1)NCc1ccncc1 (configuration not stated),,"inconclusive [activator, partial curve]"
CCc1ccc(CN2CCN(C(=O)c3ccco3)CC2)cc1,,active: 14.1 µM
O=[N+]([O-])c1cccc(CN2CCN(c3ncccn3)CC2)c1,,"inconclusive [activator, partial curve]"
O=[N+]([O-])c1ccc(C(O)CN2CCN(c3ccccc3)CC2)cc1 (configuration not stated),,"inconclusive [activator, partial curve]"
COC(=O)CCN(C(=O)C1C2CC3CC(C2)CC1C3)c1ccccn1 (configuration not stated),,"inconclusive [activator, full curve]"
c1nc(N2CCN(Cc3ccc4c(c3)OCO4)CC2)c2[nH]cnc2n1,,active: 2.82 µM
O=C(NCC1CCCO1)C(=O)NCC(c1ccco1)N1CCN(c2ccccc2F)CC1 (configuration not stated),,"inconclusive [activator, single point]"
Fc1ccccc1CN1CCN(c2ncccn2)CC1,,active: 7.94 µM
COC(=O)C1CCN(Cc2cc(=O)oc3cc(OC)ccc23)CC1,,"inconclusive [activator, partial curve]"
O=C1C2CCCN2C(=O)N1CCN1CCN(c2ccccc2)CC1 (configuration not stated),inactive: 3.48%,

SMILES,activation,Potency
Oc1cc2c(cc1CN1CCN(c3ncccn3)CC1)OCO2,,active: 0.562 µM
CC(C)=CC(=O)N1CC[C@@H](N2CCN(c3ccccc3F)CC2)[C@H](O)C1,,"inconclusive [activator, partial curve]"
CN(C)c1ccc(/C=N/N(CCO)C2=NS(=O)(=O)c3ccccc32)cc1,inactive: -0.529%,
CC(=O)N1CCc2cc(C(=O)CN3CCN(c4ccccn4)CC3)ccc21,,active: 1.12 µM
c1cnc(N2CCN(Cc3c[nH]c4ccccc34)CC2)nc1,,"inconclusive [activator, full curve]"
CC12CCC(C(=O)N(CCCCN3CCN(c4ccccn4)CC3)C1=O)C2(C)C (configuration not stated),,active: 0.0708 µM
Clc1ccc(CN2CCN(c3ncccn3)CC2)cc1Cl,,active: 14.1 µM
O=C(CN1CCc2ccccc2C1)Nc1cccc(S(=O)(=O)N2CCCC2)c1,,"inconclusive [activator, full curve]"
O=C(C1CCCN(S(=O)(=O)c2cccc3cccnc23)C1)N1CCN(c2ccccc2F)CC1 (configuration not stated),,"inconclusive [activator, full curve]"
COc1ccc(C(=O)N2CCC(N3CCN(c4ccccc4)CC3)CC2)cc1OC,inactive: 17.5%,
CNC(C)C(=O)NC(C(=O)N1CCCC1C(=O)NNc1ccccc1)C(C)C (configuration not stated),inactive: -6.41%,
COc1ccc([C@H]2CC(=O)C=C(c3ccc(OC(F)(F)F)cc3)C2)cc1OC,inactive: 20.6%,
Cc1c(CN2CC[C@@H](N3CCN(c4ccccn4)CC3)[C@H](O)C2)[nH]c2ccc(F)cc12,,active: 28.2 µM
CCN(CC)S(=O)(=O)c1cccc(S(=O)(=O)N2CCCCC2)c1,inactive: 2.67%,
CSCC[C@H](NC(=O)C1CCN(S(=O)(=O)c2ccc(C)cc2)CC1)C(=O)NC1CCS(=O)(=O)C1 (some centres not stated),inactive: -3.38%,
O=C(c1ccco1)N1CCN(Cc2ccccc2Br)CC1,,active: 50.1 µM
CCN1CCN(C(=O)Cn2nc(C)n3c(cc4c(OC)cccc43)c2=O)CC1,,"inconclusive [activator, partial curve]"
COc1cc(NC(=O)c2ccccc2)c(OC)cc1NC(=O)CN1CCN(c2ccccn2)CC1,,"inconclusive [activator, full curve, poor fit]"
COc1ccc(C(=O)N2CCC(N3CCN(c4ccccc4)CC3)CC2)cc1,,"inconclusive [activator, partial curve]"
CCCCn1c(N)c(N(CCC(C)C)C(=O)C2CC(=O)N(CCc3ccc(OC)c(OC)c3)C2)c(=O)[nH]c1=O (configuration not stated),inactive: -4.01%,
COc1cccc2c1cc1c(=O)n(CC(=O)N3CCC(C)CC3)nc(C)n12,,"inconclusive [activator, partial curve]"
COc1cccc(CC(=O)OCC(=O)NC(C)c2ccc(F)cc2)c1 (configuration not stated),inactive: -0.686%,
CC(COc1ccccc1)N1CCC(CO)(Cc2ccccc2)CC1 (configuration not stated),,"inconclusive [activator, full curve]"
CN=c1scc(-c2cccs2)n1/N=C/c1ccc(O)c(O)c1O,,active: 14.1 µM
S=C(NCc1ccccn1)Nc1ccccc1,inactive: -0.264%,
Cc1cc(C(C)(C)C)cc(S(=O)(=O)NCCc2ccncc2)c1C,inactive: 0.36%,
